pIC50: −log10 of the molar value. A lower IC50 marks a more sensitive line; fits outside the tested doses are given as limits. AUC sums up the same curve from the lowest dose to the 256-fold higher top dose: 1 means no effect, lower means more sensitive. A top dose marked as inferred was calculated from the reported fits.

Compound in this assay: Cn1cc(C2=C(c3cn(C4CCN(Cc5ccccn5)CC4)c4ccccc34)C(=O)NC2=O)c2ccccc21 [LY317615]
Nature of the assay: Viability of human cancer cell lines after 72 h of drug (GDSC screen). To be noted: top dose inferred. As for the experimental part:
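Human cancer cell lines in 384-well plates, medium with 10% serum, drug for 72 h over a 256-fold dose range (nine 2-fold or five 4-fold steps up to the top dose). Adherent lines were fixed and stained with the nucleic acid dye Syto60, suspension lines read with resazurin; signal relative to control wells, capped at 0 and 100%. One two-parameter sigmoid per drug and line, fitted in a mixed model over all curves with the slope shared within a line.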
As a reminder, the pIC50 is the IC50 on a negative log10 scale, so that one unit is a factor of ten. With “WIL2-NS (lymphoid neoplasm, suspension, top dose 20 µM)”, the AUC worked out at 0.535 and the negative-log IC50 (pIC50) was 5.82.
In the same order, the values of “JHU-022 (head and neck, adherent, top dose 20 µM)” are 0.793 and 4.92.
In the same order, the values of “OSC-20 (head and neck, adherent, top dose 20 µM)” are 0.846 and 4.72.
In the same order, the values of “KP-N-YN (neuroblastoma, adherent, top dose 20 µM)” are 0.963 and less than 4.70.
Take “SK-MES-1 (lung squamous cell carcinoma, adherent, top dose 20 µM)”: the AUC is 0.742 and the negative-log IC50 (pIC50) was 5.18.
In the same order, the values of “SBC-5 (small cell lung carcinoma, adherent, top dose 20 µM)” are 0.993 and less than 4.70.
With “YH-13 (glioma, adherent, top dose 20 µM)”, the AUC was found to be 0.719 and the pIC50 was 5.26.
The matching figures for “NK-92MI (lymphoid neoplasm, suspension, top dose 20 µM)”: 0.893 and less than 4.70.
On to “G-402 (soft tissue, adherent, top dose 20 µM)”, for which the AUC is 0.764 and the negative-log IC50 (pIC50) is 5.02.
The matching figures for “NCI-H2029 (small cell lung carcinoma, adherent, top dose 20 µM)”: 0.985 and less than 4.70.
The matching figures for “EW-1 (Ewing sarcoma, semi-adherent, top dose 20 µM)”: 0.873 and 4.78.
The matching figures for “L-363 (myeloma, suspension, top dose 20 µM)”: 0.89 and 4.76.
In the case of “RCC-MF (kidney, adherent, top dose 20 µM)”, the AUC came to 0.755 and the pIC50 was 5.06.
The matching figures for “DMS-79 (small cell lung carcinoma, suspension, top dose 20 µM)”: 0.983 and less than 4.70.
In the same order, the values of “IHH-4 (thyroid, semi-adherent, top dose 20 µM)” are 0.99 and less than 4.70.
Take “HCE-4 (oesophagus, adherent, top dose 20 µM)”: the AUC amounted to 0.98 and the pIC50 was less than 4.70.
The matching figures for “EB2 (Burkitt lymphoma, suspension, top dose 20 µM)”: 0.59 and 5.67.
The matching figures for “SNU-C1 (large intestine, suspension, top dose 20 µM)”: 0.941 and less than 4.70.
The matching figures for “DB (B-cell lymphoma, suspension, top dose 20 µM)”: 0.784 and 5.01.
As to “LK-2 (lung squamous cell carcinoma, adherent, top dose 20 µM)”, the AUC came to 0.945 and the pIC50 is less than 4.70.
The matching figures for “NCI-H2087 (lung adenocarcinoma, semi-adherent, top dose 20 µM)”: 0.366 and 6.29.
In the same order, the values of “SKG-IIIa (cervix, adherent, top dose 20 µM)” are 0.983 and less than 4.70.
The matching figures for T98G (glioma, adherent, top dose 20 µM): 0.935 and less than 4.70.
In the case of “EFO-21 (ovary, adherent, top dose 20 µM)”, the AUC is 0.681 and the negative-log IC50 (pIC50) is 5.30.
The matching figures for “NCI-H2135 (non-small cell lung carcinoma, adherent, top dose 20 µM)”: 0.945 and less than 4.70.
In the case of “RCC-FG2 (kidney, adherent, top dose 20 µM)”, the AUC was 0.758 and the negative logarithm of the IC50 (pIC50) is 5.06.
The matching figures for “HL-60 (acute myeloid leukaemia, suspension, top dose 20 µM)”: 0.934 and less than 4.70.
For “HOP-62 (lung adenocarcinoma, adherent, top dose 20 µM)”, the AUC stood at 0.706 and the pIC50 is 5.32.
The matching figures for “COLO-679 (melanoma, adherent, top dose 20 µM)”: 0.864 and less than 4.70.
In the same order, the values of “NCI-H810 (large cell lung carcinoma, adherent, top dose 20 µM)” are 0.963 and less than 4.70.
With “MDA-MB-231 (breast, adherent, top dose 20 µM)”, the AUC is 0.986 and the pIC50 is less than 4.70.
In the same order, the values of “HT-144 (melanoma, adherent, top dose 20 µM)” are 0.981 and less than 4.70.
The matching figures for “RT-112 (bladder, adherent, top dose 20 µM)”: 0.918 and less than 4.70.
In the same order, the values of “PL-21 (acute myeloid leukaemia, suspension, top dose 20 µM)” are 0.726 and 5.21.
Regarding “LB771-HNC (head and neck, adherent, top dose 20 µM)”, the AUC came out at 0.707 and the pIC50 was 5.25.
The matching figures for “OCI-AML3 (acute myeloid leukaemia, suspension, top dose 20 µM)”: 0.799 and 5.09.
As to “OCUB-M (breast, adherent, top dose 20 µM)”, the AUC turned out to be 0.893 and the pIC50 is 4.74.
In the same order, the values of “GCIY (stomach, adherent, top dose 20 µM)” are 0.971 and less than 4.70.
In the same order, the values of “NCI-H2172 (non-small cell lung carcinoma, adherent, top dose 20 µM)” are 0.928 and less than 4.70.
The matching figures for “SK-MEL-2 (melanoma, adherent, top dose 20 µM)”: 0.799 and 5.00.
Take “CCRF-CEM (lymphoblastic leukaemia, suspension, top dose 20 µM)”: the AUC came to 0.883 and the negative logarithm of the IC50 (pIC50) is 4.81.
In the same order, the values of GAMG (glioma, adherent, top dose 20 µM) are 0.723 and 5.25.
In the same order, the values of “MG-63 (osteosarcoma, adherent, top dose 20 µM)” are 0.984 and less than 4.70.
Take “SNU-423 (liver, adherent, top dose 20 µM)”: the AUC was 0.681 and the negative logarithm of the IC50 (pIC50) is 5.36.
The matching figures for “MC-IXC (neuroblastoma, adherent, top dose 20 µM)”: 0.804 and 5.15.
As to “Mewo (melanoma, adherent, top dose 20 µM)”, the AUC was determined as 0.979 and the pIC50 is less than 4.70.
In the case of “CAL-12T (non-small cell lung carcinoma, adherent, top dose 20 µM)”, the AUC turned out to be 0.708 and the negative logarithm of the IC50 (pIC50) was 5.28.
In the same order, the values of “LC-2-ad (lung adenocarcinoma, adherent, top dose 20 µM)” are 0.633 and 5.53.
The matching figures for “COR-L95 (small cell lung carcinoma, adherent, top dose 20 µM)”: 0.9 and less than 4.70.
The matching figures for “Hs746T (stomach, adherent, top dose 20 µM)”: 0.975 and less than 4.70.
For “D-392MG (glioma, adherent, top dose 20 µM)”, the AUC turned out to be 0.893 and the pIC50 is less than 4.70.
In the same order, the values of “RCC-JF (kidney, adherent, top dose 20 µM)” are 0.798 and 4.96.
In the case of “T84 (large intestine, adherent, top dose 20 µM)”, the AUC was 0.87 and the negative logarithm of the IC50 (pIC50) was 4.72.
The matching figures for “TE-8 (oesophagus, adherent, top dose 20 µM)”: 0.942 and less than 4.70.
On to “WM278 (melanoma, adherent, top dose 20 µM)”, for which the AUC worked out at 0.727 and the pIC50 was 5.22.
The matching figures for “NCI-H2291 (lung adenocarcinoma, adherent, top dose 20 µM)”: 0.972 and less than 4.70.
In the same order, the values of “OS-RC-2 (kidney, adherent, top dose 20 µM)” are 0.818 and 4.73.
Consider “HCT-116 (large intestine, adherent, top dose 20 µM)”, for which the AUC came out at 0.837 and the pIC50 is 4.90.
The matching figures for “RERF-LC-MS (lung adenocarcinoma, adherent, top dose 20 µM)”: 0.924 and less than 4.70.
In the same order, the values of “NCI-H196 (small cell lung carcinoma, adherent, top dose 20 µM)” are 0.837 and 4.84.
The matching figures for “Calu-3 (lung adenocarcinoma, adherent, top dose 20 µM)”: 0.979 and less than 4.70.
As to JHH-2 (liver, adherent, top dose 20 µM), the AUC amounted to 0.983 and the pIC50 is less than 4.70.
In the case of “SW780 (bladder, adherent, top dose 20 µM)”, the AUC was determined as 0.986 and the pIC50 is less than 4.70.
The matching figures for HuH-7 (liver, adherent, top dose 20 µM): 0.987 and less than 4.70.
The matching figures for “RL95-2 (endometrium, adherent, top dose 20 µM)”: 0.984 and less than 4.70.
The matching figures for “HUTU-80 (digestive system, adherent, top dose 20 µM)”: 0.897 and 4.76.

These data come from the supplement of paper PMC4967469.
